Data: PubChem BioAssay AID1745845 (National Center for Advancing Translational Sciences (NCATS), 2022)
Among all 360,000 compounds or so, about 2,600 (0.72%) were called active. Inconclusive means that the source gave no clear call. Such entries were picked first, then a sample of the others. Calls come from the whole dose curve; as a rule, active = well fitted inhibition curve with a large enough effect; inconclusive = small, poorly fitted or top-dose-only effect; inactive = no such curve, though single readings can be large or run the other way. A potency beside an inconclusive call is a rough fit, not a confirmed value.

experiment: Primary qHTS for Inhibitors of ATXN expression; conditions: HEK-293 ATXN2-luciferase reporter, luminescence, 24 h; activity change, negative = inhibition: at 57 µM (top of the series); note: nearly all actives have a fitted effect of over 55% in size
Method in brief: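 ATXN2-luciferase reporter cells (luciferase flanked by upstream and downstream ATXN2 gene portions) were treated 24 h at 37 °C with compounds at up to 57 uM. SteadyGlo luminescence gave expression; GF-AFC fluorescence gave viability.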
% is set by controls: 0 for no effect and ±100 for the full control effect; potency is the fitted concentration of half-maximal effect; tags give direction and shape of the fitted curve.

| Compound | activity change, negative = inhibition | Potency |
| --- | --- | --- |
| Cc1cc(C(=O)NCc2ccccc2)c2c(C)nn(-c3cccc(Cl)c3C)c2n1 | inactive: 4% | – |
| COCCNC(=S)N1CCN(c2nc(-c3ccc(Cl)cc3)cs2)CC1 | – | inconclusive: 2.82 µM [inhibitor, single point] |
| CCCCn1c(CNC(=O)C23CC4CC(CC(C4)C2)C3)nnc1SCC(=O)Nc1ccc(F)cc1 | – | inconclusive: 39.8 µM [inhibitor, single point] |
| COc1ccc(/C=C/C(=O)O)cc1 | inactive: -6.93% | – |
| CC1CCN(C(=S)NC(=O)c2cccs2)CC1 | inactive: 7.6% | – |
| CC(C(=O)Nc1ccccc1)n1nnc2sc3c(c2c1=O)CCCC3 (configuration not stated) | inactive: -14% | – |
| CCc1cc(-c2ccc3c(c2)COc2c4ccccc4nn2-3)on1 | – | inconclusive: 39.8 µM [inhibitor, single point] |
| O=S(=O)(c1ccc(F)cc1)c1snnc1-c1ccccc1 | – | active: 14.1 µM |
| CCCCNCCOCCOc1ccccc1-c1ccccc1 | inactive: -16.8% | – |
| O=C(NNC(=O)C12CC3CC(CC(C3)C1)C2)c1ccccn1 | – | inconclusive: 23.8 µM [inhibitor, single point] |
| CC(NC(=O)Nc1cccc([N+](=O)[O-])c1)c1ccc2c(c1)OCO2 (configuration not stated) | – | inconclusive: 20 µM [inhibitor, partial curve, poor fit] |
| COc1cc(OC)cc(N2C(=O)CC(N3CCC(C(=O)N4CCCCC4)CC3)C2=O)c1 (configuration not stated) | inactive: -10.7% | – |
| CN(C(=O)c1ccc(Oc2ccc([N+](=O)[O-])cc2)cc1)C1CCCCC1 | inactive: -25.7% | – |
| CN1CCN(Cc2ccc(-c3ccc(Cl)cc3)o2)CC1 | inactive: -18.4% | – |
| Clc1ccc(/C=C/c2nc3ccccc3[nH]2)c(Cl)c1 | – | inconclusive: 39.8 µM [inhibitor, single point] |
| O=C(CCCN1C(=O)c2cccc3cccc(c23)C1=O)NCc1cccs1 | – | inconclusive: 0.0084 µM [inhibitor, full curve, poor fit] |
| CCN(CC)CC(=O)Nc1nc(-c2ccc(Cl)cc2)cs1 | inactive: 3.27% | – |
| Cc1ccc(NC(=O)CCSc2nc(-c3ccc4c(c3)OCO4)cc(C(F)(F)F)n2)c(C)c1 | inactive: -3.72% | – |
| CC1CCCC(C)N1CCCNC(=O)c1cc2c(s1)-c1ccccc1OC2 (configuration not stated) | – | inconclusive: 12.6 µM [inhibitor, partial curve] |
| N=c1c2c3c(sc2ncn1N)CCC3 | inactive: -19.5% | – |
| COc1cccc(N=c2oc3ccc(OC)cc3cc2-c2nc3ccccc3[nH]2)c1 | – | inconclusive: 20 µM [inhibitor, single point] |
| CCn1c(SCC(=O)Nc2cc(C)on2)nc2c([nH]c3ccccc32)c1=O | – | inconclusive: 39.8 µM [inhibitor, partial curve, poor fit] |
| Cc1ccccc1C(=O)Nc1nnc(SC(C)C)s1 | inactive: 25.7% | – |
| COc1ccc(Cl)cc1NC(=O)C1CCN(S(=O)(=O)c2ccc(F)cc2)CC1 | – | inconclusive: 8.91 µM [inhibitor, partial curve, poor fit] |

| Compound | activity change, negative = inhibition | Potency |
| --- | --- | --- |
| COc1ccc(-c2ccc(N(C)C)cc2)cc1[C@H]1[C@@H]2C=CCC[C@@]2(C)C(=O)N1Cc1ccccc1 | inactive: -26.7% | – |
| O=C(Nc1ccccc1)N1CCN(c2nc(-c3ccccc3)ns2)CC1 | – | inconclusive: 2.12 µM [inhibitor, partial curve] |
| CC(C)(C)Cc1c(-c2ccc(Br)cc2)nc2ccc(Cl)cn12 | – | inconclusive: 39.8 µM [inhibitor, single point] |
| Cn1c(=O)c2cc(NC(=O)Nc3ccccc3)ccc2n1Cc1ccccc1 | inactive: -20% | – |
| O=C1c2ccccc2CCCC12N=NCC2c1cccc2ccccc12 (configuration not stated) | – | inconclusive: 25.1 µM [inhibitor, partial curve, poor fit] |
| Clc1cccc(-c2nc3ccc(Cl)cn3c2Cc2ccccc2)c1 | inactive: -1.27% | – |
| CC(C)(C)n1nnnc1C(c1ccccc1)N1CCN(c2ncccc2C(F)(F)F)CC1 (configuration not stated) | – | inactive |
| COc1ccc2nc(C)cc(Nc3ccc(N4CCOCC4)cc3)c2c1 | – | inconclusive: 17.8 µM [inhibitor, partial curve] |
| O=C(CSc1nc2nn(-c3ccccc3)c(=O)c-2c2n1CCCCC2)Nc1cccc(F)c1 | inactive: -11.1% | – |
| CC(C)NC(=O)NC1C2CC3CC(C2)CC1C3 (configuration not stated) | inactive: -0.42% | – |
| O=C(NCc1ccccc1)C1=C[C@H](c2csc3ccccc23)C[C@H](OCCCCO)O1 | – | inconclusive: 14.1 µM [inhibitor, partial curve] |
| COc1ccc(CCNc2nc(-c3ccc(O)cc3)cs2)cc1OC | – | inconclusive: 35.5 µM [inhibitor, partial curve, poor fit] |
| Cc1cccc(OCc2nc(C#N)c(N3CCCC3)o2)c1 | inactive: -8.39% | – |
| CC(Oc1ccccc1)C(=O)Nc1nc(-c2ccccn2)cs1 (configuration not stated) | – | inconclusive: 1 µM [inhibitor, single point] |
| COc1ccc(N2CCN(CCCNC(=O)c3ccc4nc(Cc5ccccc5)oc4c3)CC2)cc1 | – | active: 15.8 µM |
| CC(=O)c1cccc(Nc2cc(C)nc3c(C)cc(C)cc23)c1 | – | inconclusive: 22.4 µM [inhibitor, single point] |
| COc1cc(NS(=O)(=O)c2ccc3c(c2)oc(=O)n3C)cc(OC)c1OC | – | inconclusive: 14.1 µM [inhibitor, partial curve, poor fit] |
| COc1cc2ccccc2cc1C(=O)N1CCN(c2nc3c(F)cc(F)cc3s2)CC1 | – | inconclusive: 39.8 µM [inhibitor, single point] |
| O=C(CNC(=O)c1ccc(Cl)cc1Cl)OCc1nnc(-c2ccccc2Br)o1 | inactive: -2.29% | – |
| Cc1cccc(NC(=O)C2CCN(S(=O)(=O)c3ccc4c(c3)OCCO4)CC2)n1 | inactive: -12.3% | – |
| C/C(=N\NC(=O)COc1cc(C)cc(C)c1)c1cccc(NC(=O)C2CCC2)c1 | – | inconclusive: 8.91 µM [inhibitor, partial curve, poor fit] |
| O=C(O)c1cccc(COc2ccc(CO)cc2Cl)c1 | – | active: 0.282 µM |
| COc1cc2cc(C(=O)N/N=C/c3ccccc3Cl)[nH]c2cc1OC | – | inconclusive: 15.8 µM [inhibitor, partial curve, poor fit] |
| COc1ccccc1N1CCN(C(=O)c2cc3c(-c4ccccc4F)nn(C)c3s2)CC1 | – | inconclusive: 39.8 µM [inhibitor, single point] |

| Compound | activity change, negative = inhibition | Potency |
| --- | --- | --- |
| Cn1c(=O)n(C)c2cc(N3CCOCC3)c(NS(=O)(=O)c3ccc(Cl)cc3)cc21 | inactive: 28.1% | – |
| CN(c1ncccc1CNc1nc(Nc2ccc3c(c2)CC(=O)N3)ncc1C(F)(F)F)S(C)(=O)=O | – | active: 4.32 µM |
| O=C(CCNS(=O)(=O)c1ccc2c(c1)CCN2C(=O)C1CC1)N1CCN(c2cccc(C(F)(F)F)c2)CC1 | – | inconclusive: 22.4 µM [inhibitor, partial curve, poor fit] |
| Cc1ccc(OCCSc2nc3ccc(NC(=O)c4ccco4)cc3s2)cc1 | inactive: -11.1% | – |
| CC(C)C[C@H]1CNC(=S)N1C[C@H]1CCCN1C[C@H](CC(C)C)N1C[C@H](Cc2ccc(O)cc2)N(CCc2ccccc2)C1=S | – | inconclusive: 5.62 µM [inhibitor, partial curve, poor fit] |
| CC(=O)Nc1cccc(-c2cc(NC=O)c3ncc(-c4cccc(C(C)=O)c4)n3c2)c1 | inactive: -26.7% | – |
| CCC(C)NC(=O)CC(NS(=O)(=O)c1ccc(NC(C)=O)cc1)C(C)C (configuration not stated) | inactive: -14.8% | – |
| O=C(CCNC(=O)c1ccccc1)Oc1ccc([N+](=O)[O-])cc1 | – | inconclusive: 39.8 µM [inhibitor, single point] |
| CCOc1ccc(S(=O)(=O)N2CCN(C(=O)c3cc4ccccc4o3)CC2)cc1 | – | inconclusive: 35.5 µM [inhibitor, partial curve, poor fit] |
| CCNc1cc2c(cc1O)CCC1C2CCC2(C)C(O)CCC12 (configuration not stated) | inactive: 0.685% | – |
| Cc1ccc2oc(C(Cl)(Cl)Cl)cc(=O)c2c1 | – | inconclusive: 25.1 µM [inhibitor, partial curve] |
| CN1CCN(Cc2nc3ccccc3c(=O)n2Cc2nc(-c3ccc4ccccc4c3)cs2)CC1 | – | inconclusive: 22.4 µM [inhibitor, partial curve, poor fit] |
| Cc1cc([N+](=O)[O-])ccc1NC(=O)Nc1ccccc1F | inactive: -13.1% | – |
| O=C(NNc1c([N+](=O)[O-])cc(C(F)(F)F)cc1[N+](=O)[O-])c1ccco1 | – | inconclusive: 28.2 µM [inhibitor, single point] |
| CSCCC(NC(=O)c1ccc(=O)n(C)n1)c1nc2ccccc2[nH]1 (configuration not stated) | – | inconclusive: 39.8 µM [inhibitor, single point] |
| O=C1C(Cl)=C(N2CCCCC2)C(=O)C(Cl)=C1c1cnc(N2CCCCC2)s1 | – | inconclusive: 3.98 µM [inhibitor, full curve, poor fit] |
| C/C(=N\NC(=O)COc1ccccc1-c1ccccc1)c1ccccn1 | – | inconclusive: 6.7 µM [inhibitor, partial curve, poor fit] |
| CCCOC(=O)c1[nH]c2c(c1C)C(=O)CC(c1cc(OC)c(OC)c(OC)c1)C2 (configuration not stated) | – | inconclusive: 6.31 µM [inhibitor, partial curve, poor fit] |
| NC(c1csc(NC(=O)Nc2cccc(Cl)c2)n1)C1CCCCC1 (configuration not stated) | – | inconclusive: 17.8 µM [inhibitor, single point] |
| C/C(=N\NC(=O)CSCc1ccccc1Cl)c1cc(O)ccc1O | – | inconclusive: 2.67 µM [inhibitor, partial curve, poor fit] |
| CCc1ccc(OCc2ccccc2C(=O)Nc2ccc3nc(C)cc(N)c3c2)cc1 | – | active: 17.2 µM |
| CC12CCC(=O)C=C1CCC1C2C(=O)CC2(C)C1CCC2(O)C(=O)CO (configuration not stated) | inactive: -6.21% | – |
| Cc1[nH]c2ccccc2c1C(=O)C(=O)N1CCN(c2ccccc2Cl)CC1 | inactive: -11.8% | – |
| C[C@@H]1CN([C@H](C)CO)C(=O)c2cc(NC(=O)Nc3ccc(F)cc3)ccc2O[C@H]1CN(C)C(=O)Nc1ccc(C(F)(F)F)cc1 | – | inconclusive: 39.8 µM [inhibitor, single point] |
